The results in this text go back to a collection of fitness landscapes (doi:10.1126/science.1257360).

The labels stand for the following.
B1: PhoQ; a variant is named by its letters at X, in order, P23837 (parent)
chain: MKKLLRLFFPLSLRVRFLLATAAVVLVLSLAYGMVALIGYSVSFDKTTFRLLRGESNLFYTLAKWENNKLHVELPENIDKQSPTMTLIYDENGQLLWAQRDVPWLMKMIQPDWLKSNGFHEIEADVNDTSLLLSGDHSIQQQLQEVREDDDDAEMTHSVAVNVYPATSRMPKLTIVVVDTIPVELKSSYMVWSWFIYVLSANLLLVIPLLWVAAWWSLRPIEALAKEVRELEEHNRELLNPATTRELTSLVRNLNRLLKSERERYDKYRTTLTDLTHSLKTPLXXLQXXLRSLRSEKMSVSDAEPVMLEQISRISQQIGYYLHRASMRGGTLLSRELHPVAPLLDNLTSALNKVYQRKGVNISLDISPEISFVGEQNDFVEVMGNVLDNACKYCLEFVEISARQTDEHLYIVVEDDGPGIPLSKREVIFDRGQRVDTLRPGQGVGLAVAREITEQYEGKIVAGESMLGGARMEVIFGRQHSAPKDE

The other results are listed elsewhere or left out.

Variants of B1 are the subject of the assay. In words: enrichment ratio after two sorts for PhoP signalling (ratio (wild type AVST 3.29)); higher = more functional. To be noted: with PhoP (E. coli).
As to ISTH, the enrichment ratio was at most 0.25.
With RMYS, the enrichment ratio is at most 0.25.
VWVH: the enrichment ratio was at most 0.25.
As for LGVG, the enrichment ratio is at most 0.25.
For the variant HLRN, the enrichment ratio is at most 0.25.
Turning to VMTA, the enrichment ratio was at most 0.25.
For the variant NNAW, the enrichment ratio is at most 0.25.
Consider ATKA, for which the enrichment ratio was at most 0.25.
For the variant THQY, the enrichment ratio worked out at 15.
As for DREW, the enrichment ratio was at most 0.25.
RHGI: the enrichment ratio was at most 0.25.
Consider AREF, for which the enrichment ratio was at most 0.25.
With TSFF, the enrichment ratio worked out at 2.07.
Under AMLH stands 3.19; under QGTK, at most 0.25; under DYQS, at most 0.25.
In the case of WSCR, the enrichment ratio was at most 0.25.
Consider ESRM, for which the enrichment ratio is at most 0.25.
Take PNGY: the enrichment ratio was at most 0.25.
As for YFTV, the enrichment ratio was at most 0.25.
Under DLLS stands at most 0.25; under EDSK, at most 0.25; under QLLR, at most 0.25.
As for PTGC, the enrichment ratio is at most 0.25.
With QQNT, the enrichment ratio is at most 0.25.
With FQRG the figure was at most 0.25; with KTVD, at most 0.25.
For PACF, the enrichment ratio is at most 0.25.
Under VWEF stands at most 0.25.
As to ESNE, the enrichment ratio is at most 0.25.
As for EHEG, the enrichment ratio is at most 0.25.
Take GMLE: the enrichment ratio stood at 1.8.
PAMI: the enrichment ratio is at most 0.25.
For WYNP, the enrichment ratio is at most 0.25.
With SCSV, the enrichment ratio was 9.38.
With SNCI the figure was 21.8.
For the variant TGMI, the enrichment ratio was 13.2.
Regarding MGDE, the enrichment ratio was at most 0.25.
For GCPG, the enrichment ratio was at most 0.25.
As for GSPD, the enrichment ratio was at most 0.25.
As for TIHE, the enrichment ratio was at most 0.25.
Consider FNSF, for which the enrichment ratio is at most 0.25.
Take QSVV: the enrichment ratio was at most 0.25.
Consider WFIF, for which the enrichment ratio was at most 0.25.
In the case of ICNM, the enrichment ratio was at most 0.25.
In the case of DQFK, the enrichment ratio is at most 0.25.
Turning to IGVS, the enrichment ratio is at most 0.25.
As for QKFY, the enrichment ratio was at most 0.25.
As to VQAN, the enrichment ratio was at most 0.25.
Under IHEE stands at most 0.25; under ETTG, at most 0.25.
With MDIQ, the enrichment ratio turned out to be 0.654.
For EAFW, the enrichment ratio is at most 0.25.
With WDGM the figure was at most 0.25; with PMHV, at most 0.25.
Under LSKE stands at most 0.25; under FYSM, at most 0.25; under VEIS, 1.86.
For the variant KTPY, the enrichment ratio was at most 0.25.
Take YNMT: the enrichment ratio was at most 0.25.
As for QDDA, the enrichment ratio was at most 0.25.
Regarding HCTY, the enrichment ratio is at most 0.25.
Consider TVNY, for which the enrichment ratio is at most 0.25.
With HDLA the figure was at most 0.25; with VVWT, at most 0.25.
For the variant LCQN, the enrichment ratio was at most 0.25.
With TKTH the figure was at most 0.25; with YQSN, at most 0.25.
Turning to YDDI, the enrichment ratio was at most 0.25.
CSFF: the enrichment ratio was found to be 4.74.
On to VACG, for which the enrichment ratio is at most 0.25.
On to RCTL, for which the enrichment ratio is at most 0.25.
With RAHA the figure was at most 0.25.
With AIYQ, the enrichment ratio was at most 0.25.
For LNSF, the enrichment ratio was at most 0.25.
Turning to SPCQ, the enrichment ratio was at most 0.25.
Consider CLLS, for which the enrichment ratio is at most 0.25.
On to GNST, for which the enrichment ratio amounted to 15.1.
For the variant DQVN, the enrichment ratio is at most 0.25.
Consider GYLN, for which the enrichment ratio was at most 0.25.
Under VVVT stands at most 0.25; under HCHW, at most 0.25.
As for NLVI, the enrichment ratio is at most 0.25.
Turning to YMWG, the enrichment ratio was at most 0.25.
With WTFI, the enrichment ratio was at most 0.25.
Regarding HISK, the enrichment ratio is at most 0.25.
As for MRAL, the enrichment ratio was at most 0.25.
For the variant FLFH, the enrichment ratio is at most 0.25.
Turning to RPKQ, the enrichment ratio is at most 0.25.
In the case of FPNL, the enrichment ratio is at most 0.25.
For the variant AVMM, the enrichment ratio is 52.7.
Regarding NTGG, the enrichment ratio is at most 0.25.
With QRFD the figure was at most 0.25; with IRAD, at most 0.25; with PAVK, at most 0.25.
For the variant HDDY, the enrichment ratio was at most 0.25.
In the case of MLLI, the enrichment ratio came to 5.99.
Under GRQD stands at most 0.25.
Turning to ECQD, the enrichment ratio was at most 0.25.
As for QGYN, the enrichment ratio is at most 0.25.
Consider HMNL, for which the enrichment ratio is at most 0.25.
As to SICI, the enrichment ratio was 21.
NYGN: the enrichment ratio is at most 0.25.
As for QVMM, the enrichment ratio was at most 0.25.
In the case of LYLM, the enrichment ratio was at most 0.25.
With YRDW the figure was at most 0.25; with IRPS, at most 0.25; with MHHL, at most 0.25.
As to RGAW, the enrichment ratio is at most 0.25.
ISAF: the enrichment ratio was at most 0.25.
As to QEPP, the enrichment ratio was at most 0.25.
Regarding LTCC, the enrichment ratio is at most 0.25.
With QTPS the figure was at most 0.25; with AIKR, at most 0.25.
AHNK: the enrichment ratio is at most 0.25.
Consider AQLW, for which the enrichment ratio came out at 5.89.
Under GTRC stands at most 0.25; under TPPM, at most 0.25; under PIFW, 1.39.
As for QIFE, the enrichment ratio was at most 0.25.
Take AWPN: the enrichment ratio was at most 0.25.
With TPQM, the enrichment ratio is at most 0.25.
With AESG the figure was 25.4; with EDPT, at most 0.25; with IPDK, at most 0.25.
Under KPGG stands at most 0.25; under FPMM, at most 0.25.
For the variant GKWS, the enrichment ratio is at most 0.25.
On to RFRH, for which the enrichment ratio was at most 0.25.
For the variant DDGI, the enrichment ratio was at most 0.25.
Regarding GQEH, the enrichment ratio is at most 0.25.
For the variant PPKC, the enrichment ratio is at most 0.25.
IAGY: the enrichment ratio is at most 0.25.
On to KFVV, for which the enrichment ratio was at most 0.25.
As for FDSD, the enrichment ratio was at most 0.25.
For the variant GKDL, the enrichment ratio is at most 0.25.
For DYTS, the enrichment ratio is at most 0.25.
With TERE, the enrichment ratio is at most 0.25.
Regarding CHWL, the enrichment ratio is at most 0.25.
YTMY: the enrichment ratio is at most 0.25.
On to EMIV, for which the enrichment ratio was at most 0.25.
RLGY: the enrichment ratio was at most 0.25.
Under VQTG stands at most 0.25.
As for PKAD, the enrichment ratio was at most 0.25.
With NSGM, the enrichment ratio is at most 0.25.
For the variant VWAF, the enrichment ratio is at most 0.25.
As for RRSD, the enrichment ratio was at most 0.25.
In the case of PSQH, the enrichment ratio is at most 0.25.
LDRM: the enrichment ratio came out at 1.21.
Consider WCIP, for which the enrichment ratio is at most 0.25.
As for SWFT, the enrichment ratio was at most 0.25.
For HYHH, the enrichment ratio is at most 0.25.
Consider RYMH, for which the enrichment ratio was at most 0.25.
Consider TLPL, for which the enrichment ratio is at most 0.25.
With FSFH, the enrichment ratio is at most 0.25.
As to RVHI, the enrichment ratio is at most 0.25.
IEVT: the enrichment ratio is 3.84.
With QLMM the figure was at most 0.25.
With DTAQ, the enrichment ratio was at most 0.25.
As for KHWQ, the enrichment ratio was at most 0.25.
On to FNMF, for which the enrichment ratio was at most 0.25.
ESPC: the enrichment ratio was at most 0.25.
With RIAV, the enrichment ratio was at most 0.25.
With QDNV, the enrichment ratio was at most 0.25.
As for FIMK, the enrichment ratio was at most 0.25.
Under ERLC stands at most 0.25; under RNPY, at most 0.25.
As for VAQV, the enrichment ratio is at most 0.25.
As to MIMY, the enrichment ratio was at most 0.25.
For GFTF, the enrichment ratio is at most 0.25.
Take IEYI: the enrichment ratio was at most 0.25.
As for DRPV, the enrichment ratio was at most 0.25.
As for PVLS, the enrichment ratio was at most 0.25.
With AGTW the figure was at most 0.25; with ASEF, at most 0.25; with TIWY, at most 0.25.
As for FNTW, the enrichment ratio was at most 0.25.
Turning to VISS, the enrichment ratio is at most 0.25.
KYAF: the enrichment ratio was at most 0.25.
With TWFD, the enrichment ratio is at most 0.25.
Regarding LKMG, the enrichment ratio was at most 0.25.
As for QCPL, the enrichment ratio was at most 0.25.
In the case of IFKQ, the enrichment ratio is at most 0.25.
In the case of QRMS, the enrichment ratio was at most 0.25.
With KPWN the figure was at most 0.25; with NDRV, at most 0.25; with MGAE, 11.
Regarding RHNI, the enrichment ratio is at most 0.25.
With ACPV the figure was 6.8.
With IRDL the figure was at most 0.25; with EFWP, at most 0.25.
With SAAE, the enrichment ratio was at most 0.25.
For the variant YGIA, the enrichment ratio is at most 0.25.
For WMQR, the enrichment ratio was at most 0.25.
CMVY: the enrichment ratio was at most 0.25.
